The values that follow come from PubChem BioAssay AID488969 (Vanderbilt High Throughput Screening Facility, 2010).

Over roughly 110,000 compounds, “z-score” has its median near -0.1; the highest 2% begin near 2. The list shows a part of the results. Calls of active or inactive are those of the source.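 The calls were made as follows: active = z-score in the third read window above 3 or below -3; inactive = the rest.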

In the test the target is Metabotropic glutamate receptor 8 (Rattus norvegicus) (UniProt P70579). The test can be described thus: rat mGluR8 modulators via GIRK flux, primary screen, cell-based, thallium flux, HTS (AID 488969). Conditions: HEK293 rat mGluR8, GIRK (G protein-gated inwardly rectifying potassium channel) thallium flux, FluoZin2; at 10 µM; stronger effect = higher value; submaximal glutamate (EC20) added with thallium.
UniProt P70579, sequence (P70579 whole entry, looked up): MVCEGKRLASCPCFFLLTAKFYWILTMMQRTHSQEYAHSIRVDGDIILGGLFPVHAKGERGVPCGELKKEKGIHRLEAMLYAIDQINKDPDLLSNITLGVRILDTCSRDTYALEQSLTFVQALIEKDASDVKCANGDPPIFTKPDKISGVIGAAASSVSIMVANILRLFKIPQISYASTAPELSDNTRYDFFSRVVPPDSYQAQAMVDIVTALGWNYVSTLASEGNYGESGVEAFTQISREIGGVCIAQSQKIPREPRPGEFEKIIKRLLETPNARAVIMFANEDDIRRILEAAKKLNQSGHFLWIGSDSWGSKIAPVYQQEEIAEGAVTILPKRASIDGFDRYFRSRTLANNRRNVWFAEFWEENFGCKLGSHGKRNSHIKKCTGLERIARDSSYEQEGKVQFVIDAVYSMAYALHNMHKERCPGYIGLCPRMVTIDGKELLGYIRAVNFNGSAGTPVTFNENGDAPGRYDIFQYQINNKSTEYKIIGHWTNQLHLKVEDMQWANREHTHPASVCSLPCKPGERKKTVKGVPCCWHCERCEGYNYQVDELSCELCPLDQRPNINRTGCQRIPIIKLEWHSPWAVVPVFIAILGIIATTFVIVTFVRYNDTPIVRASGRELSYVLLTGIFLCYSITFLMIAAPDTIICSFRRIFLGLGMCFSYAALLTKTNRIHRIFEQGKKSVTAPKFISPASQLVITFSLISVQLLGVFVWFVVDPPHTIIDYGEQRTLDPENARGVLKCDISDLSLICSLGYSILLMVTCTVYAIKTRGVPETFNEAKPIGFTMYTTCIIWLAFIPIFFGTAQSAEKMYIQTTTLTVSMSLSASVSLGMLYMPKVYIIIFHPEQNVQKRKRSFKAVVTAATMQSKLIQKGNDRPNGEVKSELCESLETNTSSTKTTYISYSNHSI
The compound `CC1CCN(C(=O)Cn2cc(C(=O)C3CC3)c3ccccc32)CC1` registered a z-score of 1.02. To `Nc1ccccc1-c1nnn(CC(=O)N2CCCc3ccccc32)n1` belongs -0.663; to `CCCCC(=O)Nc1ccc(NC(=O)C2CC2)cn1`, 0.324; to `Cc1ccc(Nc2nnc(SC(C)C(=O)Nc3c(C)n(C)n(-c4ccccc4)c3=O)s2)cc1` (configuration not stated), -0.358.

Take `CCN=C1S/C(=C\c2cn(CC)c3ccccc23)C(=O)N1CC`: the z-score amounted to 0.0534. `O=C1c2ccc(-c3nc4ccccc4o3)cc2C(=O)N1Cc1cccnc1` yielded a z-score of 0.256. The compound `CN=C1SC(CC(=O)Nc2sc3c(c2C#N)CCCC3)C(=O)N1C` (configuration not stated) registered a z-score of -0.258. With `CSc1nc(-c2ccccc2)nc(SC)c1C(C)=O`, the z-score was -0.493.

As to `CCOC(=O)CSc1nc(-c2ccncc2)ccc1C#N`, the z-score was -0.506. To `CCc1nnc(NS(=O)(=O)c2ccc(N3C(=O)C4CC=C(Cl)CC4C3=O)cc2)s1` (configuration not stated) belongs 0.798; to `O=C(OCCN1CCCCC1)c1cc2ccccc2o1`, -0.063. The same measure for `CCNC(=O)NC(=O)C(C)OC(=O)CCCSc1nc2ccccc2s1` (configuration not stated): 0.637. To `O=C1C(Cc2ccccc2)C(c2ccccc2)N1c1ccccc1` (configuration not stated) belongs 0.0188; to `Cc1c(Oc2ccc(C(F)(F)F)cc2[N+](=O)[O-])ccc2c3c(c(=O)oc12)CCC3`, -0.0741; to `O=C(CN1CC(c2ccccc2)CC1=O)N/N=C/c1cc(Br)ccc1O` (configuration not stated), -0.0975.

Take `O=[N+]([O-])c1ccccc1-c1cc(-c2cc(Cl)ccc2O)n[nH]1`: the z-score was -0.0283. The same measure for `CC(=O)N(/N=C1\Sc2ccccc2C1=O)c1ccccc1C`: -0.0744.

Take `CCOc1cc(C(=S)N2CCOCC2)ccc1OS(=O)(=O)c1ccc(NC(C)=O)cc1`: the z-score is -0.00944. The same measure for `COC(=O)C1=C(C)N(C)C(C)=C(C(=O)OC)C1c1cccc(Br)c1`: -0.431. The same measure for `COc1ccc(CNc2nc(-c3ccccc3)nn2C(=O)c2ccc([N+](=O)[O-])cc2)cc1`: -0.158; for `O=C(Nc1nc(-c2ccc(S(=O)(=O)N3CCOCC3)cc2)cs1)c1ccccc1`: 0.152.

`O=C(N/N=C/C=C/c1ccccc1)C(O)c1ccccc1` (configuration not stated) had a z-score of -0.147. The same measure for `Cc1cc(=O)oc2c(N)c(O)ccc12`: -0.00626. To `CC(C)OC(=O)c1cc2c(ccn2C)n1CC(=O)N1CCC(Cc2ccccc2)CC1` belongs -1.05.

For `CN(C)CCN1C(=O)c2oc3ccc(F)cc3c(=O)c2C1c1ccncc1` (configuration not stated), the z-score was -0.265.

`CN(C)CCN1C(=O)C(O)=C(C(=O)c2cc3ccccc3o2)C1c1cccc(Br)c1` (configuration not stated) displayed a z-score of -0.703. In the case of `CC1Nc2nc(N(C)C)[nH]c(=O)c2NC1C` (configuration not stated), the z-score turned out to be 0.838. To `N#Cc1ccc(Oc2cc(C(F)(F)F)nc(-c3ccccn3)n2)cc1` belongs -0.415. The same measure for `CCOC(=O)Cn1c(=O)n(CC(=O)OCC)c2ccccc21`: 0.315. To `CCCCCCn1nc(C(=O)Nc2nc3c(s2)CCCC3)c2ccccc2c1=O` belongs 0.294. The compound `O=C(NC1CCCCC1)C(c1ccncc1)N(Cc1ccc2c(c1)OCO2)C(=O)C(F)(F)F` (configuration not stated) gave a z-score of -0.126. The same measure for `CC1=C(C(=O)OC2CCCCC2)C(c2ccco2)n2ncnc2N1` (configuration not stated): -2.11; for `CCCCNC(=O)CO/N=C(\C)c1cc2ccccc2o1`: 0.924; for `COc1ccccc1C1Nc2cccc3cccc(c23)N1`: 0.44. The same measure for `Cc1cccc(CN2C(=O)N/C(=C/c3cc(C)n(-c4ccccn4)c3C)C2=O)c1`: -0.27; for `CC(C)(C)c1ccc(COC(=O)CNC(=O)CNC(=O)Cc2ccccc2)cc1`: -0.047. The same measure for `O=C(NCC(=O)N1CCC(N2CCCCC2)CC1)C1CCCCC1`: 0.113. For `O=C(NCc1ccccc1)C(c1ccc(O)cc1)N(C(=O)Cn1nnc(-c2cccs2)n1)c1ccc2c(c1)OCCO2` (configuration not stated), the z-score came to 0.054. The same measure for `Cc1sc2nc(CN(Cc3cccs3)C(=O)NC3CCCCC3)[nH]c(=O)c2c1C`: -0.862; for `CN1CCc2c(c3c(n2C)CCN(C)C3c2ccc(F)cc2)C1c1ccc(F)cc1` (configuration not stated): 0.823.

The compound `Cc1cc(C(=O)NCCN2C(=O)S/C(=C\c3cccs3)C2=O)ccc1[N+](=O)[O-]` returned a z-score of 0.0116.

In the case of `O=c1cc(CSc2ccccn2)c2ccccc2[nH]1`, the z-score was -0.0699.

As to `CCn1nnnc1SCC(=O)N1CCOCC1`, the z-score came to 0.31. `CCOC(=O)C1CCN(C(=O)CCCOc2ccccc2)CC1` showed a z-score of -1.31. The same measure for `CC1CCN(C(=O)CCNC(=O)Cn2cnc3sc4c(c3c2=O)CCCC4)CC1`: -0.208; for `COC1Cc2ccccc2N(C(=O)N2CCN(CCO)CC2)c2ccccc21` (configuration not stated): -0.171. The same measure for `COc1ccc(CC(=O)n2c(CC#N)nc3ccccc32)cc1OC`: 0.0175; for `CCCCn1c(C)cc(/C=C(\C#N)C(=O)O)c1C`: -0.222.

Turning to `Cc1cc(C(=O)CN2C(=O)c3ccccc3S2(=O)=O)c(C)n1-c1ccccc1`, the z-score was 0.19. To `O=C(CCCSc1nc2ccccc2s1)Nc1nccs1` belongs -0.79; to `COc1ccc(NC(=O)C2OC3OC(C)(C)OC3C3OC(C)(C)OC23)cc1` (configuration not stated), -0.0361. The same measure for `O=C(Nc1ccc(F)cc1)c1cn(-c2ccccc2)nc1-c1ccncc1`: -0.507. To `Cn1c(SCC(=O)NC2CCCCC2)nnc1-c1cc2cc(Cl)ccc2o1` belongs -0.559; to `O=C(Nc1ccccc1)c1ccc(CSc2ccccn2)cc1`, -0.0973. `Cc1occc1C(=O)NNC(=O)Nc1ccc(F)cc1F` gave a z-score of -0.1. Compound `CN(c1ccccc1)S(=O)(=O)c1ccc(C(=O)Nc2nccs2)cc1` returned a z-score of 0.374. To `COc1ccc(N=Cc2ccc(CNS(=O)(=O)c3ccc(Cl)cc3)o2)cc1` belongs -0.295; to `CC(C)C1Cc2c(C#N)c(N)n(C)c(=S)c2CO1` (configuration not stated), -1.22.

The compound `O=[N+]([O-])c1ccc(Cl)c(S(=O)(=O)NCC2CCCO2)c1` (configuration not stated) yielded a z-score of -0.238. The same measure for `COc1ccc(OC)c(S(=O)(=O)N2CCc3ccccc32)c1`: 0.824. To `CCOC(=O)C1CCN(C(=O)CSc2n[nH]c(=O)[nH]c2=O)CC1` belongs 0.161.

`CCCCC(=O)NC(=S)NNC(=O)CC#N`: the z-score was -0.265.

In turn, `Cc1ccc(NC(=O)c2ccc(OC(=O)C(C)Oc3ccc(Cl)cc3C)cc2)cc1` (configuration not stated) registered a z-score of -0.296. `Cc1nc2c(C(=O)N3CCOCC3)cnn2c(C)c1Cc1ccc(Cl)cc1` displayed a z-score of -0.24. The same measure for `Cc1ccc(NC(=O)N(CCCN2CCOCC2)Cc2cccs2)cc1C`: -0.357; for `CCOC(=O)C1CCN(c2ncnc3c2cnn3-c2ccc(OC)cc2)CC1`: 0.645; for `COc1ccc(-n2c(C)cc(/C=C(\C#N)C(=O)NCc3ccco3)c2C)cc1`: -0.393. The compound `Cc1ccc(Sc2nc([N+](=O)[O-])nn2C)cc1` yielded a z-score of -0.201. To `Cc1ccccc1-c1ccc(Nc2ccc(C(=O)N3CCOCC3)cc2)nn1` belongs 0.503; to `O=C(O)C1CSC2(c3ccc4c(c3)OCCO4)CCC(=O)N12` (configuration not stated), 0.952.

For the compound `Cc1cccc(-c2c3c(=O)n(C)c(=O)n(C)c3cn2-c2ccc(O)cc2)c1`, the z-score was -0.937.

Compound `Cn1c(COc2ccccc2)nnc1SCC(=O)Nc1ccc(N2CCOCC2)c(Cl)c1` displayed a z-score of 0.244. The same measure for `O=C(NCCc1ccccc1)C(=O)Nc1nccs1`: 0.151; for `Cc1c(Cc2ccccc2)sc(/N=C/c2c(O)ccc3ccccc23)c1C(N)=O`: 0.0117; for `CC(=O)NC(NC(=S)Nc1ccc(N=Nc2ccccc2)cc1)C(Cl)(Cl)Cl` (configuration not stated): 0.0756. To `Cc1cccc(N2C(=O)CN(Cc3sccc3C)C2=S)c1` belongs -1.09; to `COc1ccc(NC(=O)Nc2ccc(F)cc2F)c(C)c1`, -0.571; to `Cc1cccc(NC(=O)C23CCC(C)(C2Br)C3(C)C)c1` (configuration not stated), 0.0793. To `O=S(=O)(c1ccc(C2CCCCC2)cc1)N1CCN(c2ncccn2)CC1` belongs -0.202. Turning to `Cc1ccccc1NC(=O)c1c(Cl)nc(C)c(Cl)c1C`, the z-score worked out at 0.803.

Regarding `Cc1c(NC(=O)/C(=C/c2cccs2)c2cccs2)c(=O)n(-c2ccccc2)n1C`, the z-score is 0.0139. In the case of `Cc1nc2c3cc(F)ccc3n(Cc3ccc(F)cc3)c2s1`, the z-score was -0.186. To `CCOC(=O)C1=C(C)N[C@@]2(O)c3ccccc3C(=O)[C@@]12O` belongs 0.275; to `C=CCn1c(-c2ccccc2OC)n[nH]c1=S`, -0.222. To `CC(=O)Oc1ccc(C(=O)O)cc1OC(C)=O` belongs -0.673; to `COCCn1c(=NC(=O)/C=C/c2cccs2)sc2cc(NC(C)=O)ccc21`, -0.149. The same measure for `COc1ccc(-n2c(-c3ccccc3)nc(=S)c3c2CCCC3)cc1`: 0.0477; for `O=C(CC1NCCNC1=O)Nc1ccc2c(c1)OCCO2` (configuration not stated): 0.114; for `COc1ccc(C(C)C)cc1S(=O)(=O)n1ccnc1C`: -0.0108. On to `N#CC1=C(N2CCOCC2)/C(=C\c2ccccc2)CC1`, for which the z-score was -0.118. To `C/C(=N\Nc1nc2ccccc2[nH]1)c1ccc(Cl)s1` belongs -1.3; to `OCCCN=c1cc(-c2ccccc2)oc2ccc(Cl)cc12`, active: 3.32; to `CCOC(=O)C1CCN(C(=S)Nc2cc(C)ccc2C)CC1`, -0.0504. In the case of `C=C(Br)Cn1c(CC(C)C)nc2ccccc21`, the z-score is -0.262. In turn, `COc1cc(NS(=O)(=O)c2ccc(N/C=C(\C#N)c3nc4cc(Cl)ccc4o3)cc2)nc(OC)n1` showed a z-score of -0.686. The same measure for `COc1cccc(-n2nnc3c(=O)n(C/C=C/c4ccccc4)cnc32)c1`: -0.533; for `CC1CCc2nn(CC(=O)Nc3ccc(F)cc3F)cc2C1` (configuration not stated): -1.66. The same measure for `Cn1c(=O)c2c(nc(-n3ccnc3)n2C)n(C)c1=O`: -0.0821. To `CCOC(=O)CCC(NC(=O)c1cncc(O)c1)C(=O)OCC` (configuration not stated) belongs -0.145; to `Cc1cc(C)n2nc(-c3ccsc3-n3c(C)ccc3C)cc2n1`, -0.445; to `Cc1ccc(N2C(=O)CC2(C#N)c2ccc(OCc3ccccc3)cc2)cc1` (configuration not stated), 0.0189. `COC(=O)c1ccc(C)c(NC(=O)Cc2coc3cc(OC)ccc23)c1` came in with a z-score of 0.022. To `NC(=O)c1ccsc1NC(=O)C1CCCCC1` belongs -0.188.

Compound `CS(=O)(=O)CCC(C(=O)OCc1ccc(Cl)cc1)N1C(=O)c2ccccc2C1=O` (configuration not stated) returned a z-score of -0.0233. Consider `CCc1nnc(NC(=O)CSc2nc(-c3ccc(OC)cc3)ns2)s1`, for which the z-score is 0.586. With `COc1ccccc1CCNCc1ccc(OC)c(OCc2ccccc2)c1`, the z-score was found to be 0.696.

For the compound `Cc1occc1-c1nnc(SCC(=O)NC2CCCC2)n1-c1ccccc1`, the z-score was -0.296.

With `Cc1cc(C)cc(NC(=O)CCc2nc3ccccc3[nH]2)c1`, the z-score is -0.237. To `O=c1c([N+](=O)[O-])c[nH]c2ccccc12` belongs -0.277; to `N#Cc1c(NCc2ccccc2)ccnc1NCc1cccnc1`, -0.0947; to `CCc1cc2c(=O)n(C(C)C(=O)OC3CCCCC3)cnc2s1` (configuration not stated), -0.0201.

`Cc1csc(SCC(=O)NCCc2ccc(Cl)cc2)n1` yielded a z-score of -0.378.
